{"source": "paper PMC4336329", "about": "(PLoS ONE, 2015)", "note": "Among all 310,000 compounds or so, about 2,200 (0.71%) showed an effect of 50% or more. Effects have a minus sign here. This is one part of the list.", "data": [{"target": "human ether-à-go-go-related gene (hERG) potassium channel (human, UniProt Q12809)", "sequence (Q12809 whole entry, looked up)": "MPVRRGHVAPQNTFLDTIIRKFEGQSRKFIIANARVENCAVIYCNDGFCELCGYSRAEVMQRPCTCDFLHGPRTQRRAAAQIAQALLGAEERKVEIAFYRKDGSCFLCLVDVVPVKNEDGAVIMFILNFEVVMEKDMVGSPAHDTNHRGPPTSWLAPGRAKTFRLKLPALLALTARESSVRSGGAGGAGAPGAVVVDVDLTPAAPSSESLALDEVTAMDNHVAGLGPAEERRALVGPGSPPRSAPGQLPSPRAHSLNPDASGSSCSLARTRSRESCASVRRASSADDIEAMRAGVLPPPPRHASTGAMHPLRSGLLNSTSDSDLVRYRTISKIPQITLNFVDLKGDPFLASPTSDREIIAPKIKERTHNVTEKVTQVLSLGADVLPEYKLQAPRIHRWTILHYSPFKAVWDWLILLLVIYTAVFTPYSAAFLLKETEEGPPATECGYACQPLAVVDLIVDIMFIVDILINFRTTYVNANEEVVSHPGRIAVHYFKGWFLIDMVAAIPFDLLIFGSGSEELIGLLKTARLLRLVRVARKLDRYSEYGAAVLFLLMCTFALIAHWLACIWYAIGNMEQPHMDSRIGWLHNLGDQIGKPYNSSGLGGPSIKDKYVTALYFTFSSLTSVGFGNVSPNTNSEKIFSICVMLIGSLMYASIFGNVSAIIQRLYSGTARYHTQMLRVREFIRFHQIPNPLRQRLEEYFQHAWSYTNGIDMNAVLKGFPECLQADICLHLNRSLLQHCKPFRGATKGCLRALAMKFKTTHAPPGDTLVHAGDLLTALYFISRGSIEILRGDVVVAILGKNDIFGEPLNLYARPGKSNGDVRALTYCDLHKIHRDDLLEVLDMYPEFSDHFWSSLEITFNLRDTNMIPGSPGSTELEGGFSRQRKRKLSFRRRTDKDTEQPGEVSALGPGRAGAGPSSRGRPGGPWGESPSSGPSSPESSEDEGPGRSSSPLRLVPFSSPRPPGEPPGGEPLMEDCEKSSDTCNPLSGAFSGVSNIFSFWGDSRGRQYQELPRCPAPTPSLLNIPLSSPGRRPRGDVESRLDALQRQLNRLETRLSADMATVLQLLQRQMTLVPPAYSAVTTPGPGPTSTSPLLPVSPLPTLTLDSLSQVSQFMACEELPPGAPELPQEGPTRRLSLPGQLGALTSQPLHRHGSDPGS", "test": "primary screen, population patch clamp on CHO cells stably expressing hERG", "units": {"hERG current change (%, negative = inhibition) at 1uM": "%"}, "values": [{"compound": "CCCCn1c(N)c(N(CC)C(=O)c2cccc(OCc3ccccc3)c2)c(=O)[nH]c1=O", "hERG current change (%, negative = inhibition) at 1uM": -0.527}, {"compound": "O=c1ccccn1CCOc1ccc(Cl)cc1", "hERG current change (%, negative = inhibition) at 1uM": 9.72}, {"compound": "COc1ccc(C)cc1NC(=O)CCNS(=O)(=O)c1ccc2c(c1)CC(C)N2C(C)=O", "note": "(centres unmarked)", "hERG current change (%, negative = inhibition) at 1uM": 5.43}, {"compound": "O=C(O)c1csc(-c2cccs2)n1", "hERG current change (%, negative = inhibition) at 1uM": 16.8}, {"compound": "CC(=O)C1=C(O)C(=O)N(CCCn2ccnc2)C1c1ccc(Br)cc1", "note": "(centres unmarked)", "hERG current change (%, negative = inhibition) at 1uM": 5.3}, {"compound": "CN(C(=O)CSc1nnc2ccccn12)c1c(N)n(Cc2ccccc2)c(=O)[nH]c1=O", "hERG current change (%, negative = inhibition) at 1uM": 9.44}, {"compound": "Cc1cc(C)c(NC(=O)CNC(=O)COC(=O)Cc2ccccc2C)c(C)c1", "hERG current change (%, negative = inhibition) at 1uM": 4.73}, {"compound": "O=C(NC1CCCCC1)c1ccc(-c2ccc(Cl)cc2)o1", "hERG current change (%, negative = inhibition) at 1uM": 18.1}, {"compound": "NS(=O)(=O)c1ccc(CCNC(=O)C2CCN(S(=O)(=O)c3c(Cl)cccc3Cl)CC2)cc1", "hERG current change (%, negative = inhibition) at 1uM": 5.85}, {"compound": "COc1cc(/C=C2\\SC(=O)N(CC(=O)Nc3ccc(C)cc3)C2=O)cc(Cl)c1OCC(=O)O", "hERG current change (%, negative = inhibition) at 1uM": 12.5}, {"compound": "O=C(CNC(=O)c1ccccc1)OC(C(=O)c1ccccc1)c1ccccc1", "note": "(centres unmarked)", "hERG current change (%, negative = inhibition) at 1uM": 6.32}, {"compound": "N=C1SC(CC(=O)Nc2ccc([N+](=O)[O-])cc2)C(=O)N1c1ccccc1", "note": "(centres unmarked)", "hERG current change (%, negative = inhibition) at 1uM": 12.1}, {"compound": "CCOC(=O)CNC(=O)CSc1nc(-c2ccccc2)ns1", "hERG current change (%, negative = inhibition) at 1uM": 13.6}, {"compound": "COC(=O)C1=C(C)N(Cc2ccccc2)C(=O)N[C@H]1c1cccc(F)c1", "hERG current change (%, negative = inhibition) at 1uM": 10.8}, {"compound": "Cc1cccc(NC(=O)CN2C(=O)COc3ccc(Cl)cc32)c1C", "hERG current change (%, negative = inhibition) at 1uM": 10.5}, {"compound": "S=C(NCC1CCCO1)Nc1ccc(Nc2ccccc2)cc1", "note": "(centres unmarked)", "hERG current change (%, negative = inhibition) at 1uM": 3.43}, {"compound": "CCOC(=O)CCNC(C)C1COc2ccccc2O1.O=C(O)C(=O)O", "note": "(centres unmarked)", "hERG current change (%, negative = inhibition) at 1uM": 10.3}, {"compound": "CN1C(=O)c2ccccc2C(C(=O)NCCCN2CCCC2)C1c1c[nH]c2ccccc12", "note": "(centres unmarked)", "hERG current change (%, negative = inhibition) at 1uM": 4.8}, {"compound": "COc1ccc(CNC(C)C(=O)Nc2ccc3ccccc3c2)cc1OC", "note": "(centres unmarked)", "hERG current change (%, negative = inhibition) at 1uM": 6.19}, {"compound": "O=C(CCC(=O)OCC(=O)c1cccc([N+](=O)[O-])c1)NC1CCCCC1", "hERG current change (%, negative = inhibition) at 1uM": 0.754}, {"compound": "Cc1nn(-c2ccccc2)c(C)c1/C=N/NC(=O)c1ccccc1NS(=O)(=O)c1cccs1", "hERG current change (%, negative = inhibition) at 1uM": 16.4}, {"compound": "O=C(CN1C(=O)c2cccnc2Oc2ccc(Cl)cc21)NC1CCCCCC1", "hERG current change (%, negative = inhibition) at 1uM": 11}, {"compound": "COC(=O)c1ccc(COc2ccc(Cl)cc2)o1", "hERG current change (%, negative = inhibition) at 1uM": 4.33}, {"compound": "COc1ccc(-c2oc3ccccc3c2C#Cc2cncn2C)cc1", "hERG current change (%, negative = inhibition) at 1uM": 20.5}, {"compound": "CCCc1ccc2oc(C(=O)N(C)CCn3ccnc3C)c(C)c2c1", "hERG current change (%, negative = inhibition) at 1uM": -28.8}, {"compound": "Cc1ccccc1NC(=O)C1(C)Cc2ccccc2C(=O)O1", "note": "(centres unmarked)", "hERG current change (%, negative = inhibition) at 1uM": 3.46}, {"compound": "Cc1ccc(C(=O)NCC(=O)OCN2C(=O)c3ccccc3C2=O)cc1C", "hERG current change (%, negative = inhibition) at 1uM": 10.3}, {"compound": "CC1=C(C(=O)OC(C)C)C(c2cccs2)n2ncnc2N1", "note": "(centres unmarked)", "hERG current change (%, negative = inhibition) at 1uM": 7.58}, {"compound": "CC(O)[C@@H](NC(=O)C1CCC(CNC(=O)[C@H](Cc2ccccc2)NC(=O)OC(C)(C)C)CC1)C(=O)O", "note": "(some centres unmarked)", "hERG current change (%, negative = inhibition) at 1uM": 10.3}, {"compound": "CC1CCC(NCC(O)c2ccccc2)CC1", "note": "(centres unmarked)", "hERG current change (%, negative = inhibition) at 1uM": 10.4}, {"compound": "Br.CCCC1CC(CSC(=N)N)OC1=O", "note": "(centres unmarked)", "hERG current change (%, negative = inhibition) at 1uM": 13.4}, {"compound": "CSc1cccc(NC(=O)C(C)NS(=O)(=O)c2ccc(F)cc2)c1", "note": "(centres unmarked)", "hERG current change (%, negative = inhibition) at 1uM": -11.9}, {"compound": "CN(C)S(=O)(=O)c1cccc(NC(=S)Nc2cc(Cl)cc(Cl)c2)c1", "hERG current change (%, negative = inhibition) at 1uM": -6.07}, {"compound": "Cc1cc(C(=O)N/N=C/c2c(C)n(C)c3ccccc23)n[nH]1", "hERG current change (%, negative = inhibition) at 1uM": -2.89}, {"compound": "Cc1ccc2[nH]c(=O)c(CN(CC3COCCO3)C(=O)Nc3ccccc3C)cc2c1", "note": "(centres unmarked)", "hERG current change (%, negative = inhibition) at 1uM": 11.7}, {"compound": "Cc1cc(S(=O)(=O)Nc2ccc(C(=O)NCC(C)(C)N3CCOCC3)cc2)ccc1F", "hERG current change (%, negative = inhibition) at 1uM": 1.64}, {"compound": "CCOC(=O)/C=C1\\SCC(=O)N1CC(=O)NCCOC", "hERG current change (%, negative = inhibition) at 1uM": 5.7}, {"compound": "Cc1nn(C)cc1CNC(=O)c1ccc(F)cc1", "hERG current change (%, negative = inhibition) at 1uM": 10.4}, {"compound": "O=c1c2cc3c(=O)n(CC4CCCO4)c(=O)c3cc2c(=O)n1CC1CCCO1", "note": "(centres unmarked)", "hERG current change (%, negative = inhibition) at 1uM": 3.92}, {"compound": "Cc1cccc(NC(=S)NCCc2ccc(S(N)(=O)=O)cc2)c1C", "hERG current change (%, negative = inhibition) at 1uM": 8.95}, {"compound": "Cc1cccc(Cc2cnc(NC(=O)c3ccc(C)o3)s2)c1", "hERG current change (%, negative = inhibition) at 1uM": -1.73}, {"compound": "CN1C(=O)C(=Cc2ccc(OCC(=O)Nc3ccccc3)cc2)C(=O)N(C)C1=O", "hERG current change (%, negative = inhibition) at 1uM": 15.8}, {"compound": "CCCOc1cc(C)c(S(=O)(=O)NCCOC)cc1C", "hERG current change (%, negative = inhibition) at 1uM": -3.16}, {"compound": "CCN(CC)S(=O)(=O)c1ccc(N2CCOCC2)c(NC(=O)c2ccc(OC)c([N+](=O)[O-])c2)c1", "hERG current change (%, negative = inhibition) at 1uM": 1.2}, {"compound": "S=c1[nH]nc(-c2ccccc2)n1/N=C/c1ccc(Cl)cc1", "hERG current change (%, negative = inhibition) at 1uM": 9.86}, {"compound": "CCOc1cccc(=O)c2c(C)oc(C)c12", "hERG current change (%, negative = inhibition) at 1uM": 7.81}, {"compound": "O=C(NCC1CCCO1)C1CCC(CNS(=O)(=O)c2ccccc2)CC1", "note": "(centres unmarked)", "hERG current change (%, negative = inhibition) at 1uM": 12.6}, {"compound": "O=C(Nc1nc2ccccc2s1)c1cccc(S(=O)(=O)N2CCc3ccccc32)c1", "hERG current change (%, negative = inhibition) at 1uM": -2.8}, {"compound": "CN1CCN(c2ccc(Cl)cc2NC(=O)c2ccc(=O)n(C)n2)CC1", "hERG current change (%, negative = inhibition) at 1uM": -6.56}, {"compound": "C/C=C1\\COC(C(=O)NCc2cccc(OC)c2OC)(C(F)(F)F)C=C1C=C1CCCCC1", "note": "(centres unmarked)", "hERG current change (%, negative = inhibition) at 1uM": 9.99}, {"compound": "O=[N+]([O-])c1cc2c(cc1CN1CCN(CCOCCO)CC1)OCO2", "hERG current change (%, negative = inhibition) at 1uM": 13.4}, {"compound": "N#Cc1ccc(OCC(O)CS(=O)(=O)c2ccccc2)cc1", "note": "(centres unmarked)", "hERG current change (%, negative = inhibition) at 1uM": -0.905}, {"compound": "Cc1csc(C(=O)O)c1-c1c(C)csc1C(=O)O", "hERG current change (%, negative = inhibition) at 1uM": 3.62}, {"compound": "C=CCNc1cnn(-c2ccc(C)cc2)c(=O)c1Sc1ccc(C)cc1", "hERG current change (%, negative = inhibition) at 1uM": 13.8}, {"compound": "Cc1ccc(C(=O)N/C(=C\\c2ccco2)C(=O)NCC2CCCO2)cc1C", "note": "(centres unmarked)", "hERG current change (%, negative = inhibition) at 1uM": 9.11}, {"compound": "O=c1[nH]c(=O)n(Cc2ccccc2)c2nc(-c3ccc(C(F)(F)F)cc3)n(CCO)c12", "hERG current change (%, negative = inhibition) at 1uM": 2.08}]}]}
